# The whole screen tested about 52,000 compounds, of which about 1,700 (3.3%) were called active. No stated cut-off is given here; in the data, active means survival mostly below about 52% (no sharp cut-off); inactive means mostly above about 56%. The list shows a part of the results.
# Test system: Wild type
# Assay: growth inhibition of S. aureus wild type versus tarO mutant, primary screen, teichoic acid synthesis inhibitors, RN4220, OD600 (AID 463173)
# Settings: S. aureus RN4220 wild type/DeltatarO growth, OD600, 18 h, active compounds read low, screened at 18.75 µg/mL (by protocol)
row,Structure (SMILES),survival
1,OC1(c2ccccc2F)CCN(CCN2CCCCC2)CC1,inactive: 104%
2,COC(=O)C1C(=O)C2=C(CC1C)Nc1ccccc1NC2c1ccc(N(C)C)cc1 (stereo not drawn),inactive: 102%
3,Cn1c(=O)oc2cc(S(=O)(=O)CCC(=O)NCc3ccccc3)ccc21,inactive: 73%
4,CCOc1ccc(N2CC(c3nc(-c4cc(OC)c(OC)c(OC)c4)no3)CC2=O)cc1 (stereo not drawn),inactive: 75%
5,CCOc1ccc(N(C)S(=O)(=O)c2ccc3c(c2)C(C)(C)C(=O)N3C)cc1,inactive: 84%
6,Cc1ccc(-n2nnc3c(sc4nc(C)c(C)cc43)c2=O)cc1Cl,inactive: 84%
7,Cc1ccc(C)c(NC(=O)C2CCCN(S(=O)(=O)c3c(C)noc3/C=C/N(C)C)C2)c1 (stereo not drawn),inactive: 115%
8,COc1ccc(CSc2nc3ncccc3[nH]2)cc1,inactive: 72%
9,O=C(NC1CCCC1)c1c[nH]c2ccc(S(=O)(=O)Nc3cccc(C(F)(F)F)c3)cc2c1=O,active: 11%
10,COc1ccc(CNC(=O)C2=C(C(=O)O)CCCC2)cc1,inactive: 121%
11,COc1cccc(N2CC(NC(=O)c3ccc(S(=O)(=O)N4CCCC4)cc3)CC2=O)c1 (stereo not drawn),inactive: 59%
12,COCCNC(=O)C1CCN(S(=O)(=O)c2ccc3c(c2)CCCN3C(C)=O)CC1,inactive: 77%
13,COc1ccc(-c2nc3n(n2)C(c2ccc(OC)cc2)C(C(=O)Nc2cccnc2)=C(C)N3)cc1 (stereo not drawn),inactive: 73%
14,CCOC(=O)c1[nH]c(C)c(CCC(=O)N2CCN(c3ccccc3)CC2)c1C,inactive: 91%
15,CCOC(=O)c1c(C)oc2nc(C)nc(NCC3CCN(Cc4ccc(Cl)cc4)CC3)c12,inactive: 78%
16,CC(=O)OCC#CCSc1nnc(-c2cccc(Br)c2)o1,inactive: 49%
17,CCN(c1ccccc1)S(=O)(=O)c1nnc(NC(=O)COc2ccc(OC)cc2)s1,inactive: 81%
18,CCOC(=O)c1c(C)[nH]c(CCC(=O)NCCCN2CCN(c3cccc(Cl)c3)CC2)c1C,inactive: 70%
19,CCOc1ccc(-n2c(Cc3ccccc3)nnc2SCc2nc(-c3ccccc3C)no2)cc1,inactive: 90%
20,CC(=O)NCCNC(=O)CCCc1nnc2n(CCC(C)C)c(=O)c3sccc3n12,inactive: 97%
21,CCn1c(CN2CCC(C)CC2)nc2cc(NC(=O)c3ccccc3[N+](=O)[O-])ccc21,inactive: 80%
22,Cc1ccc(C)c(Cn2c(=O)c3c(nc4n3CCN4c3ccc(F)cc3)n(C)c2=O)c1,inactive: 91%

row,Structure (SMILES),survival
1,CC(C)N(C(=O)c1cc2sccc2n1Cc1ccc(F)cc1)C(C)C,inactive: 135%
2,CCc1ccc(OC(=O)CSc2nnc(-c3ccc4c(c3)OCO4)o2)cc1,inactive: 85%
3,CCS(=O)(=O)N1CCc2cc(C(=O)N3CCN(c4cccc(C(F)(F)F)c4)CC3)ccc21,inactive: 95%
4,Cc1ccc(NC(=O)C(=O)NCC(c2cccnc2)N2CCOCC2)cc1C (stereo not drawn),inactive: 83%
5,Oc1cccc(C(Nc2ccccn2)c2ccc3cccnc3c2O)c1Cl (stereo not drawn),inactive: 76%
6,CCOCCCNC(=O)C(c1ccc(OC)cc1)N(Cc1cccs1)C(=O)c1ccc(NC(C)=O)cc1 (stereo not drawn),inactive: 74%
7,Cc1cc(-c2ccc(N3C(=O)CCC3=O)c(C)c2)ccc1N1C(=O)CCC1=O,inactive: 107%
8,Cc1ccc(C(=O)c2oc3ccccc3c2NC(=O)c2cc(=O)c3ccccc3o2)cc1,inactive: 88%
9,COc1ccc(CNC(=O)Cn2ccc3cc(S(=O)(=O)N4CCCCCC4)ccc32)cc1OC,inactive: 120%
10,COc1cccc(-c2cn3c(n2)sc2cc(C(=O)NCc4cccs4)ccc23)c1,inactive: 66%
11,CCOc1ccc2nc(Cl)c(CN(Cc3ccco3)C(=O)C3CC3)cc2c1,inactive: 101%
12,COc1ccc2oc(=O)cc(CN3CCN(C(=O)c4ccccc4F)CC3)c2c1,inactive: 76%
13,CCCCC(CC)C(=O)Nc1nnc(C(C)C)s1 (stereo not drawn),inactive: 110%
14,NC(=O)C1CCN(CC(=O)Nc2ccccc2)CC1,inactive: 97%
15,O=C(CC(c1ccccc1)c1ccccc1)N1CCN(c2ccccn2)CC1,inactive: 99%
16,Cc1ccc(Cl)cc1N1CCN(C(=O)c2cc(S(=O)(=O)N3CCC(C)CC3)cn2C)CC1,inactive: 70%
17,CC(=O)Nc1ccc(NC(=O)CC2Sc3ccccc3NC2=O)cc1 (stereo not drawn),inactive: 154%
18,CCOc1ccc(CNS(=O)(=O)c2ccc3[nH]c4c(c3c2)CCCC4)cc1OC,inactive: 55%
19,Cc1c(CNCc2ccc(Cl)cc2)c(C(=O)O)c(C)n1Cc1ccc(F)cc1,inactive: 98%
20,CCOc1ccc(CNC(=O)C2CCN(S(=O)(=O)c3c(C)noc3/C=C/c3ccc(C)cc3)CC2)cc1OC,inactive: 71%
21,COc1ccc(NC(=O)Cn2c(CCC(=O)O)ccc2-c2ccccc2)cc1Cl,inactive: 84%
22,COc1cccc(CNC(=O)CCc2nnc3n(C)c(=O)c4sccc4n23)c1,inactive: 64%

row,Structure (SMILES),survival
1,CCCN(CCC)CCCNC(=O)C1CCC(CNS(=O)(=O)c2ccc(NC(C)=O)cc2)CC1 (stereo not drawn),inactive: 66%
2,CCN1C(=O)N(CC)C2NC(=S)NNC21 (stereo not drawn),inactive: 103%
3,CCOC(=O)c1c(C)oc2nc(C)nc(Nc3cccc(OC)c3)c12,inactive: 80%
4,CCOC(=O)Cc1ccc(NC(=O)n2ncc3c(C)cccc32)cc1,inactive: 81%
5,CCOc1ccc(CC(=O)Nc2c(C(=O)c3ccc(F)cc3)oc3ccccc23)cc1OCC,inactive: 65%
6,CCC(O)c1nc2ccccc2n1Cc1cccc(Cl)c1 (stereo not drawn),inactive: 90%
7,CN1CCN(S(=O)(=O)c2ccc(NC(=O)COc3ccccc3Cl)cc2)CC1,inactive: 110%
8,Cc1ccccc1CSc1cn(CCNC(=O)c2cccs2)c2ccccc12,inactive: 79%
9,COc1ccc(C(CNC(=O)COc2ccc(C)c(C)c2)N2CCCCC2)cc1 (stereo not drawn),inactive: 85%
10,CN(C)c1nc(C#N)nc(N2CCOCC2)n1,inactive: 105%
11,COc1cccc(/C=N/n2c(-c3ccco3)nc3ccccc3c2=O)c1,inactive: 105%
12,Cc1cc(C)c(NC(=O)Cn2nc3c(cc2=O)CCCC3)c(C)c1,inactive: 88%
13,COCCCN1C(=O)N(c2ccccc2)C(=O)C1CC(=O)Nc1ccc(F)cc1 (stereo not drawn),inactive: 84%
14,O=C(NCc1ccc2c(c1)CCN2C(=O)c1ccc(F)cc1)c1ccc(Br)o1,inactive: 55%
15,COc1cc(OC)cc(C(=O)Nc2cc3nn(-c4ccccc4)nc3cc2Cl)c1,inactive: 56%
16,CCCS(=O)(=O)c1ncc(Cl)c(C(=O)N(Cc2ccccc2)Cc2ccco2)n1,inactive: 44%
17,CCOc1ccc(-c2oc3ccccc3c(=O)c2O)cc1OCC,inactive: 81%
18,O=C(Nc1ccc(S(=O)(=O)Nc2ccccc2)cc1)N1CCCC1,inactive: 72%
19,COc1ccccc1NC(=O)N1CC(=O)Nc2sc3c(c2C1c1ccccc1)CCCC3 (stereo not drawn),inactive: 108%
20,COc1ccccc1NC(=O)C1=C(C)Nc2c(C(=O)Nc3ccc(F)cc3)cnn2C1c1ccc(Cl)cc1 (stereo not drawn),inactive: 55%
21,O=C(C1Cc2ccccc2CN1S(=O)(=O)c1ccc(F)cc1)N1CCCCC1 (stereo not drawn),inactive: 101%
22,Cn1c(=O)c2c(nc(SCC(=O)Nc3ccc(OC(F)(F)F)cc3)n2Cc2cccc(C(F)(F)F)c2)n(C)c1=O,inactive: 85%

row,Structure (SMILES),survival
1,COc1ccc(-c2noc(-c3ccc(NCc4ccc(C)cc4)c([N+](=O)[O-])c3)n2)cc1OC,inactive: 79%
2,COc1cccc(C2N(c3ccccc3)CCN2c2ccccc2)c1OC,inactive: 105%
3,Cc1ccc(S(=O)(=O)Nc2cc3c(cc2C)n(C)c(=O)c(=O)n3C)cc1,active: -4%
4,O=C(Cn1c(=O)n(-c2ccc(F)cc2)c(=O)c2sc3ccccc3c21)N1CCCC1,inactive: 70%
5,Cc1cc(NC(=O)N2CC=C(c3c[nH]c4ccccc34)CC2)ccc1Br,inactive: 81%
6,CCOC(=O)c1sc2ccccc2c1S(=O)(=O)Nc1c(C)cccc1C,inactive: 79%
7,Cn1nc(C(=O)NCc2ccccc2)c2c1-c1ccccc1SC2,inactive: 86%
8,Cc1ccc(CSC2=Nc3ccccc3C3=NC(CCC(=O)N4CCN(c5ccccc5)CC4)C(=O)N23)cc1 (stereo not drawn),inactive: 98%
9,Cc1ccc(-c2onc(C)c2C)cc1S(=O)(=O)N1CCCCC1,inactive: 71%
10,CCc1nn(CC(=O)NCCc2ccc(OC)cc2OC)c(=O)c2cc3sccc3n12,inactive: 125%
11,COc1cccc(CNC(=O)Cn2cc3c(n2)-c2c(oc(C(=O)N4CCCC4)c2C)CC3)c1OC,inactive: 88%
12,Cc1ccccc1NC(=O)CSc1nc(-c2ccc(F)cc2)c2cccc(C)c2n1,inactive: 85%
13,COc1cc(CNC(=O)c2cc(-c3ccccc3)n[nH]2)cc(OC)c1OC,inactive: 72%
14,COc1ccc(-n2nc(C(=O)N3CCC(C)CC3)c3c4ccccc4n(C)c3c2=O)cc1Cl,inactive: 84%
15,CCCc1noc(-c2ccc(N3CCCCC3)c([N+](=O)[O-])c2)n1,inactive: 77%
16,Cc1ccc2cc(CN(CCN(C)C)C(=O)NC3CCCCC3)c(=O)[nH]c2c1,inactive: 111%
17,COc1cccc(-c2nc(SCC(=O)Nc3ccc4c(c3)OCO4)c(-c3ccccc3)[nH]2)c1,inactive: 45%
18,COc1cc(NC(=O)Cn2ncc3c(=O)oc4ccccc4c32)cc(OC)c1OC,inactive: 80%
19,Cc1nc2c(cnn2-c2ccccc2Cl)c(=O)n1-c1ccc(C(C)C)cc1,inactive: 94%
20,CCc1ccc(S(=O)(=O)c2nnn3c2nc(NCCc2ccccc2)c2sccc23)cc1,inactive: 61%
21,Cc1cccc(N2CCN(S(=O)(=O)c3cc(Br)cc4c3N(C(=O)C3CC3)CC4)CC2C)c1 (stereo not drawn),inactive: 75%
22,COc1ccc(CCn2cc3c(c2-c2ccccc2Br)c(=O)n(C)c(=O)n3C)cc1OC,inactive: 79%

# Reference: PubChem BioAssay AID463173 (ICCB-Longwood Screening Facility, Harvard Medical School, 2010)
